Assay results: PubChem BioAssay (NCI)
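Test compounds were applied to cells in 96-well plates for 48 hours at 5 doses. GI50 is the concentration that inhibits growth by half. At the TGI there is no net growth.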

system: NCI-H322M lung; experiment: inhibition of tumour cell growth, NCI panel, 48 h

| SMILES | GI50 | TGI |
| --- | --- | --- |
| CCOC(=O)c1cc2c(n1Cc1cccc(OC)c1)-c1oncc1CC2 | 4.99 µM | > 100 µM |
| c1ccc([CH2][Sn]([CH2]c2ccccc2)([S]c2cccc3cccnc23)[S]c2cccc3cccnc23)cc1 | 0.326 µM | 1.14 µM |
| O=C1CCC/C=C\C[C@H]2C=C(Cl)C(=O)/C2=C/C[C@H](CCCCC(F)(F)F)OC(=O)CCC/C=C\C[C@H]2C=C(Cl)C(=O)/C2=C/C[C@H](CCCCC(F)(F)F)O1 | 0.755 µM | 2.11 µM |
| COc1c(O)c2ccccc2c2cc(O)ccc12 |  | 39.1 µM |
| COc1ccc(CCNc2nc3ccccc3c3[nH]c4ccccc4c23)cc1OC | 2.27 µM | 5.38 µM |
| CCCCC1(N=[N+]=[N-])C(=O)c2cccc3c2N(CCC3)C1=O (stereo not drawn) |  | > 100 µM |
| Nc1ccc2c(c1)C1Oc3ccccc3CC1CO2 (stereo not drawn) |  | > 100 µM |
| COC12C=C/C(=C(/C(=O)OCc3ccncn3)C(=O)CCCCCCCCC3(OC)C=C/C(=C(/C(=O)OCc4ccncn4)C(=O)CCCCCCCC1)O3)O2 | 0.74 µM | 2.21 µM |
| COc1ccc(NC(=O)CC/C(CC(=O)c2ccco2)=N/Nc2ccc([N+](=O)[O-])cc2[N+](=O)[O-])cc1 |  | > 100 µM |
| C/C(O)=C/c1nc2ccccc2nc1/C=C(/C)O |  | > 100 µM |
| C=CCNC1=C2C[C@@H](C)C[C@@H](OC)C(OC(=O)CCCN(C)C)[C@H](C)/C=C(\C)[C@@H](OC(N)=O)[C@H](OC)/C=C\C=C(/C)C(=O)NC(=CC1=O)C2=O (stereo partly drawn) |  | 19.6 µM |
| CSC1=Nc2ccccc2-c2nc(-c3ccccc3)cc(-c3ccccc3)c2C1 |  | > 100 µM |
| O=C1C=Cc2c(Cl)sc(Cl)c21 |  | 29.4 µM |
| O=c1c2ccccc2oc2c1ccc1ncccc12 |  | 70.2 µM |
| NNC(=O)CC(=O)Nc1ccc(Cl)cc1 |  | > 100 µM |
| COC1CCC(=C2C(=O)OC(C)(C)OC2=O)N1 (stereo not drawn) |  | > 100 µM |
| CC(C)c1ccc2c(c1)CCC1C(C)(C)[C@@H](O)CC[C@]21C (stereo partly drawn) |  | > 100 µM |
| O=S(=O)(c1cc(Cl)ccc1Cl)N1CCN(S(=O)(=O)c2cc(Cl)ccc2Cl)CC1 |  | > 100 µM |
| Cc1cc2c(cc1-c1cc3c(cc1C)C(C(C)C)=C(O)C(=O)/C3=C\Nc1nc(-c3ccccc3)cs1)/C(=C/Nc1nc(-c3ccccc3)cs1)C(=O)C(O)=C2C(C)C |  | > 100 µM |
| COc1ccc(CN2CCc3c(Cl)nc(N)nc3C2=O)c(OC)c1 | 17.9 µM | 57.6 µM |
| CCOC(=O)C1=CN=C2C(=O)N(c3ccccc3)N(C)C2(C)C1=N (stereo not drawn) |  | > 100 µM |
| CCOC(=O)c1cnc2ccc(Cl)cc2c1NCCCN(C)C | 33 µM | > 100 µM |
| C=CCOc1ccc(C2c3c([nH][nH]c3=O)CC(O)(OCC)C2C(=O)OCC)cc1OC (stereo not drawn) |  | > 100 µM |

| SMILES | GI50 | TGI |
| --- | --- | --- |
| COc1cc(C2c3cc4c(cc3C(O)C3CCC(=O)N23)OCO4)cc(OC)c1OC (stereo not drawn) |  | > 100 µM |
| COCCNC(=O)C1C(=O)N(CCOC)C(=O)/C1=N/N (stereo not drawn) |  | > 100 µM |
| CCOP1(=O)OCC2OC(n3cnc4c(N)ncnc43)C(O)C2O1 (stereo not drawn) |  | > 100 µM |
| COC(=O)C1=Cc2cc3c(cc2[C@H](c2ccc4c(c2)OCO4)C1C(=O)OC)OCO3 (stereo partly drawn) |  | > 100 µM |
| CO/C(=N\N=C\c1ccc(Cl)cc1)c1ccncc1 |  | > 100 µM |
| COC(=O)c1c(OC(C)=O)ccc2c1c1c(OC(C)=O)c3ccccc3c(OC(C)=O)c1n2Cc1cc(OC)cc(OC)c1 |  | > 100 µM |
| CC(=O)OCC1OC(n2cc(F)c(=O)[nH]c2=O)C(OC(C)=O)C1OC(C)=O (stereo not drawn) |  | > 100 µM |
| CCOC(=O)c1ccc(-c2cc(C)[nH]n2)[nH]1 |  | > 100 µM |
| O=C1CCCC1C(=O)Nc1ccc2ccccc2c1 (stereo not drawn) |  | > 100 µM |
| CCc1nc(N)nc(N)c1-c1ccc(Cl)cc1 |  | > 100 µM |
| CC(=O)OC1COC(N2C(=O)C(=O)c3c(C)cc(Cl)nc32)C(OC(C)=O)C1OC(C)=O (stereo not drawn) |  | > 100 µM |
| Cn1cc(-c2ccc3cc(-c4ccc(CC(=O)Nc5cc(C(C)(C)C)nn5C)cc4)cnc3c2)cn1 | 0.162 µM | > 100 µM |
| C=C1C(=O)OC(CCCCCCCC)C1C(=O)O (stereo not drawn) | 19.5 µM | 40.3 µM |
| CN(NC(=O)/C(=C/c1ccc(O)cc1)NC(=O)c1ccccc1)c1ccnc2cc(Cl)ccc12 |  | 40.1 µM |
| N/C(=N\N=C\c1ccc2c(c1)OCO2)NO |  | > 100 µM |
| Cc1c(C(=O)/C=C/c2ccco2)[n+](=O)c2ccccc2n1[O-] |  | > 100 µM |
| O=c1c(Cl)nsnc1Cl |  | 33.4 µM |
| O=[N+]([O-])c1ccc2c(c1)nc(Cc1ccccc1)n2C[C@@H]1CCCN2CCCCC12 (stereo partly drawn) |  | 61.9 µM |
| O=C1Cc2c(-c3ccc(Cl)cc3)cc(-c3ccccc3)nc2-c2ccccc2N1 |  | 94.5 µM |
| CC(C)(C)C#C[P+](c1ccccc1)(c1ccccc1)c1ccccc1 |  | 2.23 µM |
| CCC12C=CCN3CC[C@]4(C(=C(C(=O)OC)[C@@H]1Nc1ncnc5c1ncn5C1OC(COC(C)=O)C(OC(C)=O)C1OC(C)=O)Nc1ccccc14)C32 (stereo partly drawn) |  | 13.4 µM |
| COc1cc2c(cc1OC)C1CN3C(=O)CCC3C(O)C1c1cc(OC)c(OC)cc1-2 (stereo not drawn) |  | > 100 µM |
| C(=N\Nc1ncc(-c2cc3cc4c(cc3o2)OCO4)s1)/c1c[nH]c2ccccc12 | 3.37 µM | 15.7 µM |

| SMILES | GI50 | TGI |
| --- | --- | --- |
| Cc1c2c(n3c(nc4ccccc43)c1C#N)SCC2 |  | > 10 µM |
| Cc1cc(Cl)n2c(nc3ccccc32)c1C#N | 2.33 µM | 9.09 µM |
| C[C@]12CC[C@H]3[C@@H](CCC4=CC(=O)C=C[C@@]43O)[C@@H]1CCC2=O |  | > 100 µM |
| CCN(CC)CCCCCCCCNc1c2ccc(Cl)cc2nc2ccc(OC)cc12 | 1.92 µM | 5.56 µM |
| CC(=O)NC1(C)CCC(C(C)(C)NC(C)=O)CC1 (stereo not drawn) |  | > 100 µM |
| O=C(CC(O)(c1ccccc1)c1ccc(Cl)cc1)NC(=O)c1ccccc1O (stereo not drawn) |  | > 100 µM |
| CC(C)NC(=O)OCc1nnn2c1C(OC(=O)NC(C)C)CC2 (stereo not drawn) |  | > 100 µM |
| CN(Cc1c2ccccc2cc2ccccc12)S(=O)(=O)c1ccc(-c2c3nc(c(-c4ccc(S(=O)(=O)N(C)Cc5c6ccccc6cc6ccccc56)cc4)c4ccc([nH]4)c(-c4ccc(S(=O)(=O)N(C)Cc5c6ccccc6cc6ccccc56)cc4)c4nc(c(-c5ccc(S(=O)(=O)N(C)Cc6c7ccccc7cc7ccccc67)cc5)c5ccc2[nH]5)C=C4)C=C3)cc1 |  | > 100 µM |
| Oc1ccc2c(c1)-c1c(c3cc(O)ccc3n1CCN1CCOCC1)CC2 |  | > 100 µM |
| [N-]=[N+]=Nc1ccc(S(=O)(=O)Oc2cc(OS(=O)(=O)c3ccc(N=[N+]=[N-])cc3)cc(OS(=O)(=O)c3ccc(N=[N+]=[N-])cc3)c2)cc1 |  | > 100 µM |
| COc1ccc(CN(O)C2C(CO)OC(n3cc(I)c(=O)[nH]c3=O)C2O)cc1 (stereo not drawn) |  | > 100 µM |
| CC/C(Cl)=N\OC(=O)Nc1ccc(OC)cc1 |  | 31.1 µM |
| CCN(CC)CCn1c(=N)n(CC(O)c2ccc(Cl)c(Cl)c2)c2ccccc21 (stereo not drawn) | 11.3 µM | 24.5 µM |
| O=C(Nc1nc2ncn(CCOC(=O)c3ccccc3)c2c(=O)[nH]1)c1ccccc1 |  | > 100 µM |
| CCCCC/C=C1/CC(CO)(COC(=O)CC(C(C)C)C(C)C)OC1=O (stereo not drawn) |  | 35.8 µM |
| Cn1ccnc1CCc1ccc(F)cc1F |  | > 100 µM |
| NC(=O)C/C=C/CC(N)=O |  | > 100 µM |
| [O-][n+]1onc2c3nn(-c4ccccc4)nc3ccc21 |  | 41 µM |
| COc1ccc(C(=O)c2cc3c(N)c(C(=O)Nc4cccc(Cl)c4)sc3nc2C)cc1 | 1.92 µM | > 33.3 µM |
| C[N+](C)(C)CC(=O)N/N=C(/C=C/c1ccccc1)CC1OC(=O)c2ccccc21 (stereo not drawn) |  | > 100 µM |
| Cc1cc2c(-c3nc4ccccc4[nH]3)c(O)c(O)cc2c(O)c1-c1c(C)cc2c(-c3nc4ccccc4[nH]3)c(O)c(O)cc2c1O | 0.0711 µM | 7.74 µM |
| CCOC(=O)c1c(SC(=O)c2cc(OC)c(OC)c(OC)c2)n(-c2ccccc2)c(=S)n(-c2ccccc2)c1=O |  | > 100 µM |
| COc1cc(-c2cc(-c3ccc(N(C)C)cc3)nc(N3CCC(O)CC3)c2C#N)cc(OC)c1OC | 0.953 µM | > 100 µM |

| SMILES | GI50 | TGI |
| --- | --- | --- |
| CCCC(Sc1nc(N)nc2nc[nH]c12)C(=O)O (stereo not drawn) |  | > 100 µM |
| Cc1cn(C2CC(O)C(CO)C2C)c(=O)[nH]c1=O (stereo not drawn) |  | > 100 µM |
| CN(C)C1(C#N)CCC2(CC1)OCCO2 |  | > 100 µM |
| COCn1c2ccc(OC(C)=O)cc2c2c(=O)oc(C)nc21 |  | > 100 µM |
| CC1(C)O[C@H](C(=O)O)[C@@H](C(=O)O)O1 |  | > 100 µM |
| O=C(Nc1ccc(Cl)c(Cl)c1)Nc1ccc(Cl)c([N+](=O)[O-])c1 | 2.03 µM | 7.72 µM |
| Cc1c(CNc2ccc(Cl)c(C(=O)NC(CC(=O)O)C(=O)O)c2)ccc2nc(N)nc(N)c12 (stereo not drawn) | 13.9 µM | > 1000 µM |
| FC(F)(F)c1ccc2nc(-c3nc(-c4ccccc4)n4ccccc34)[nH]c2c1 | 3.35 µM | 12.6 µM |
| COc1ccc2c(c1)OCC1(O)Cc3ccccc3OC21 (stereo not drawn) |  | > 100 µM |
| CCc1ccc(Cc2ccc(CC)c(NC(=O)C(=O)Cc3nc4ccccc4nc3C)c2CC)c(CC)c1NC(=O)C(=O)Cc1nc2ccccc2nc1C |  | > 100 µM |
| CCOC(=O)C(C(=O)c1ccccc1-c1ccccc1C(=O)O)=P(c1ccccc1)(c1ccccc1)c1ccccc1 |  | 99.5 µM |
| O=C(O)Cc1ccc(Oc2nc3ccccc3nc2-c2cccs2)cc1 |  | > 100 µM |
| CCSSCS(C)(=O)=O |  | > 100 µM |
| Cc1ncc(C(=O)Nc2ccc(CN3CCN(C)CC3)c(C(F)(F)F)c2)cc1C#Cc1c(N)ncc2ccc(C#N)cc12 | 1.48 µM | 10.9 µM |
| COc1c2occc2c(OC)c2c(=O)c(S(=O)(=O)NC(=O)Nc3ccc(Cl)cc3)coc12 |  | > 10 µM |
| O=C(Nc1ccccc1)c1cc2c(cc1Cl)Sc1nccn1S2(=O)=O |  | 43.3 µM |
| C=Nc1ccc([N+](=O)[O-])cc1 |  | > 100 µM |
| CC1CN=C(Nc2cccc(C(F)(F)F)c2)S1 (stereo not drawn) |  | > 100 µM |
| CCN1CCN(C(=O)[C@]23CC[C@@H](C)[C@H](C)[C@@H]2C2=CC[C@@H]4[C@@]5(C)C/C(=C/c6cccnc6)C(=O)C(C)(C)[C@@H]5CC[C@@]4(C)[C@]2(C)CC3)CC1 | 2.28 µM | 8.27 µM |
| COc1cc2c(cc1OCCCC(=O)Nc1cc(C(=O)Nc3cc(C(=O)Nc4cc(C(=O)NCCCN(C)C)n(C)c4)n(C)c3)n(C)c1)N=C[C@@H]1CCCN1C2=O |  | 27.8 µM |
| CC1(C)CCC[C@]2(C)[C@@H]1CC[C@@]13O[C@@H]1C1=C(CO)C(=O)O[C@]14O[C@@H]4[C@@H]23 |  | 28.4 µM |
| COC(c1ccsc1)C(C#N)(C#N)N=Cc1ccsc1 (stereo not drawn) |  | 27.6 µM |
| Cc1ccc(S(=O)(=O)NCCCN(CCCNS(=O)(=O)c2ccc(C)cc2)S(=O)(=O)c2ccc(C)cc2)cc1 |  | > 100 µM |
